# Measured values as given in the supplement of paper PMC8728848.
# The other results are listed elsewhere or left out.
# B1: CVN-E41G (protein)
# chain: MHHHHHHENLYFQSGNFSQACYNSAIQGSVLTSTCIRTNGGYNTSSIDLNSVIGNVDGSLKWQGSNFIETCRNTQLAGSSELAAECKTRAQQFVSTKINLDDHIAAIDGTLKYE
# Experiments:
# Test in all cases: glycan array binding signal (z-score within array); higher = stronger binding
# Details in all cases: glycan notation: IUPAC condensed, linker removed; mutation: E41G
# [1] = target: Gal3S(b1-3)[Fuc(a1-4)]GlcNAc
# How it was run: (§1)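 Negative Z-scores can be read as non-binding. The Z-score is calculated within each array and then averaged across arrays of one protein sequence at different concentrations or buffers and across linkers. Arrays, 3228 in all, were curated from the Consortium for Functional Glycomics database and kept only where the protein sequence was available.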
# [2] = target: Gal3S(b1-4)Glc
# How it was run: as §1
# [3] = target: Gal3S(b1-4)Glc6S
# How it was run: as §1
# [4] = target: Gal3S(b1-4)GlcNAc
# How it was run: as §1
# [5] = target: Gal3S(b1-4)[Fuc(a1-3)]Glc6S
# How it was run: as §1
# [6] = target: Gal3S(b1-4)[Fuc(a1-3)]GlcNAc
# How it was run: as §1
# [7] = target: Gal3S(b1-4)[Fuc(a1-3)]GlcNAc6S
# How it was run: as §1
# [8] = target: Gal3S4S(b1-4)GlcNAc
# How it was run: as §1
# [9] = target: Gal3S6S(b1-4)GlcNAc
# How it was run: as §1
# [10] = target: Gal3S6S(b1-4)GlcNAc6S
# How it was run: as §1
# [11] = target: Gal4S(b1-4)GlcNAc
# How it was run: as §1
# [12] = target: Gal4S6S(b1-4)GlcNAc
# How it was run: as §1
# [13] = target: Gal6P(b1-4)GlcNAc
# How it was run: as §1
# [14] = target: Gal6S(b1-3)GlcNAc
# How it was run: as §1
# [15] = target: Gal6S(b1-3)GlcNAc6S
# How it was run: as §1
# [16] = target: Gal6S(b1-4)Glc
# How it was run: as §1
# [17] = target: Gal6S(b1-4)Glc6S
# How it was run: as §1
# [18] = target: Gal6S(b1-4)GlcNAc
# How it was run: as §1
# [19] = target: Gal6S(b1-4)GlcNAc6S
# How it was run: as §1
# [20] = target: GalNAc(a1-3)Gal
# How it was run: as §1
# [21] = target: GalNAc(a1-3)GalNAc
# How it was run: as §1
# [22] = target: GalNAc(a1-3)GalNAc(b1-3)Gal(a1-4)Gal(b1-4)Glc
# How it was run: as §1
# [23] = target: GalNAc(a1-3)GalNAc(b1-3)Gal(a1-4)Gal(b1-4)GlcNAc
# How it was run: as §1
# [24] = target: GalNAc(b1-3)Gal
# How it was run: as §1
# [25] = target: GalNAc(b1-3)Gal(a1-4)Gal(b1-4)GlcNAc
# How it was run: as §1
# [26] = target: GalNAc(b1-3)Gal(a1-4)Gal(b1-4)GlcNAc(b1-3)Gal(b1-4)Glc
# How it was run: as §1
# [27] = target: GalNAc(b1-3)Gal(a1-6)Gal(b1-4)Glc
# How it was run: as §1
# [28] = target: GalNAc(b1-3)GalNAc
# How it was run: as §1
# [29] = target: GalNAc(b1-3)GlcNAc
# How it was run: as §1
# [30] = target: GalNAc(b1-4)Gal(b1-4)Glc
# How it was run: as §1
# [31] = target: GalNAc(b1-4)GlcNAc
# How it was run: as §1
# [32] = target: GalNAc(b1-4)GlcNAc(b1-2)Man
# How it was run: as §1
# [33] = target: GalNAc(b1-4)GlcNAc(b1-2)Man(a1-3)[GalNAc(b1-4)GlcNAc(b1-2)Man(a1-6)]Man(b1-4)GlcNAc(b1-4)GlcNAc
# How it was run: as §1
# [34] = target: GalNAc(b1-4)GlcNAc(b1-3)GalNAc(b1-4)GlcNAc
# How it was run: as §1
# [35] = target: GalNAc(b1-4)GlcNAc6S
# How it was run: as §1
# [36] = target: GalNAc(b1-6)GalNAc
# How it was run: as §1
# [37] = target: GalNAc3S(b1-4)GlcNAc
# How it was run: as §1
# [38] = target: GalNAc3S(b1-4)GlcNAc3S
# How it was run: as §1
# [39] = target: GalNAc3S(b1-4)[Fuc(a1-3)]GlcNAc
# How it was run: as §1
# [40] = target: GalNAc4S6S(b1-4)GlcNAc
# How it was run: as §1
# [41] = target: GalNAc6S(b1-4)GlcNAc
# How it was run: as §1
# [42] = target: Glc(a1-4)Glc
# How it was run: as §1
# [43] = target: Glc(a1-4)Glc(a1-4)Glc(a1-4)Glc
# How it was run: as §1
# [44] = target: Glc(a1-6)Glc(a1-6)Glc
# How it was run: as §1
# [45] = target: Glc(a1-6)Glc(a1-6)Glc(a1-6)Glc
# How it was run: as §1
binder,measurement,setting,value
B1,glycan array binding signal (z-score),[1],-0.134
same,glycan array binding signal (z-score),[2],-0.161
same,glycan array binding signal (z-score),[3],-0.146
same,glycan array binding signal (z-score),[4],-0.147
same,glycan array binding signal (z-score),[5],-0.103
same,glycan array binding signal (z-score),[6],-0.162
same,glycan array binding signal (z-score),[7],-0.148
same,glycan array binding signal (z-score),[8],-0.183
same,glycan array binding signal (z-score),[9],-0.185
same,glycan array binding signal (z-score),[10],-0.172
same,glycan array binding signal (z-score),[11],-0.189
same,glycan array binding signal (z-score),[12],-0.19
same,glycan array binding signal (z-score),[13],-0.147
same,glycan array binding signal (z-score),[14],-0.171
same,glycan array binding signal (z-score),[15],-0.147
same,glycan array binding signal (z-score),[16],-0.138
same,glycan array binding signal (z-score),[17],-0.159
same,glycan array binding signal (z-score),[18],-0.174
same,glycan array binding signal (z-score),[19],-0.17
same,glycan array binding signal (z-score),[20],-0.175
same,glycan array binding signal (z-score),[21],-0.096
same,glycan array binding signal (z-score),[22],-0.179
same,glycan array binding signal (z-score),[23],-0.174
same,glycan array binding signal (z-score),[24],-0.133
same,glycan array binding signal (z-score),[25],-0.154
same,glycan array binding signal (z-score),[26],-0.163
same,glycan array binding signal (z-score),[27],-0.158
same,glycan array binding signal (z-score),[28],-0.176
same,glycan array binding signal (z-score),[29],-0.108
same,glycan array binding signal (z-score),[30],0.127
same,glycan array binding signal (z-score),[31],-0.135
same,glycan array binding signal (z-score),[32],-0.154
same,glycan array binding signal (z-score),[33],-0.056
same,glycan array binding signal (z-score),[34],-0.112
same,glycan array binding signal (z-score),[35],-0.143
same,glycan array binding signal (z-score),[36],-0.169
same,glycan array binding signal (z-score),[37],-0.172
same,glycan array binding signal (z-score),[38],-0.176
same,glycan array binding signal (z-score),[39],-0.15
same,glycan array binding signal (z-score),[40],-0.186
same,glycan array binding signal (z-score),[41],-0.186
same,glycan array binding signal (z-score),[42],-0.139
same,glycan array binding signal (z-score),[43],-0.138
same,glycan array binding signal (z-score),[44],-0.062
same,glycan array binding signal (z-score),[45],-0.029
